According to PubChem BioAssay AID686970 (National Center for Advancing Translational Sciences (NCATS), 2013):
About 6,000 (1.7%) of roughly 360,000 compounds were called active. The shares of active, inactive and inconclusive entries below differ from those in the screen. Calls follow the shape of the dose curve; as a rule, active = well fitted cell-killing curve with a large enough effect; inconclusive = small, poorly fitted or top-dose-only effect, or effect the other way; inactive = flat fitted curve, though single readings scatter. Potencies of inconclusive entries are left out as doubtful fits.

Assay: qHTS for induction of synthetic lethality in tumor cells producing 2HG: qHTS for the HT-1080-NT fibrosarcoma cell line;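 also: NT is the 2HG producing partner of a matched IDH1 knockdown line; nearly all actives have a fitted effect of over 55% in size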;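 as to activity, negative = less viability: 0% = DMSO-treated cells and -100% = media-only wells without cells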
Settings: HT-1080-NT fibrosarcoma viability, CellTiter-Glo ATP luminescence, 48 h; activity, negative = less viability: at 46.1 µM (top of the series) unless noted
Summary of the method: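 HT-1080-NT; 750 cells/well; 5% FBS RPMI; 48 h compound, 37 degrees C; CellTiter-Glo luminescence; curve fitting and curve-class assignment.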
Potency is read from the fitted curve at half-maximal effect; tags tell the direction and shape of the fitted curve.

| SMILES | Potency | activity, negative = less viability |
| --- | --- | --- |
| COc1cccc(CN2CCC2(C)C(=O)NCc2cccc(C(F)(F)F)c2)c1OC (stereo not drawn) | inconclusive [cytotoxic, single point] | – |
| COc1ccc([N+](=O)[O-])cc1N(CC1CO1)S(=O)(=O)c1ccc(C)cc1 (stereo not drawn) | inconclusive [cytotoxic, partial curve] | – |
| CCOc1ccc(/C=N/NC(=O)C(O)c2ccccc2)c(O)c1 (stereo not drawn) | inconclusive [cytotoxic, partial curve] | – |
| CC(=O)c1cn(CC(=O)Nc2ccccc2F)c2ccccc12 | – | inactive: -1.99% |
| Cc1ccc([C@H]2C[C@H](O)[C@@H](n3cc(-c4ccc(F)cc4)nn3)CN2Cc2cccs2)cc1 | inconclusive [cytotoxic, single point] | – |
| COc1ccc(CC(=O)Nc2ccc(-c3cn4ccccc4n3)cc2)cc1OC | inconclusive [cytotoxic, single point] | – |
| CCC(CO)Oc1cc(NCc2ccc(Cl)cc2Cl)c2ncn(C(C)C)c2c1 (stereo not drawn) | inconclusive [cytotoxic, single point] | – |
| N#Cc1cccc(NC(=O)CNc2cc(S(=O)(=O)N3CCOCC3)ccc2N2CCCC2)c1 | – | inactive: -14.7% |
| C[C@@H](NC(=O)[C@H]1O[C@@H](n2cnc3c(N)ncnc32)[C@H](O)[C@@H]1O)c1cccc2ccccc12 | – | inconclusive: -38.6% [cytotoxic] |
| COC(=O)Nc1ccc(S(=O)(=O)N2c3ccccc3CCC2C)cc1 (stereo not drawn) | active: 2.82 µM | – |
| CCN(C(=O)COC(=O)c1c(C)c(-c2ccccc2)nc2ccccc12)C1CCS(=O)(=O)C1 (stereo not drawn) | inconclusive [cytotoxic, single point] | – |
| COc1cc(C(=O)NC(=S)NNC(=O)c2cnccn2)cc(OC)c1OC | inconclusive [cytotoxic, partial curve] | – |
| Cc1ccc(Cl)cc1NS(=O)(=O)c1ccc(-n2cccn2)cc1 | – | inactive: -20.6% |
| CCN(CC)CCNc1ccc(CO)c2oc3cc(Cl)ccc3c(=O)c12 | inconclusive [cytotoxic, single point] | – |
| CC(C)C(O)(C#CCN1CCCCCC1)c1ccccc1 (stereo not drawn) | inconclusive [cytotoxic, single point] | – |
| COc1ccccc1N(Cc1ccccc1)S(=O)(=O)c1cccc(C(=O)Nc2ccccn2)c1 | inconclusive [cytotoxic, partial curve] | – |
| NC(=O)N1N=C2/C(=C/c3ccccc3)CCCC2C1c1ccccc1 (stereo not drawn) | inconclusive [cytotoxic, single point] | – |
| COc1cccc(C(=O)Nc2nnc(C(C)C)s2)c1 | – | inactive: 9.18% |
